# Assay results from PubChem BioAssay (NCI).
#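 Five compound concentrations were applied to cells in 96-well plates for 48 hours; endpoints were derived by simple linear interpolation of the resulting dose-response curve. GI50 marks 50% less growth.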 Not every entry of the source has a single result; some have several. They are shown here; other results are not. The source may hold further records. For some assays here: The tests behind the records often covered other concentration ranges, which the source does not state; some values may only mark the edge of a range. For some assays here: The records of an entry are repeats across runs, samples, wells, individuals or studies. What stands in brackets tells the records apart. Letters hold for one entry only.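 At the TGI there is no net growth.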
# Legend:
# Assay in all cases: NCI-60 cell line screen, 48 h
# SNB-19 CNS = tested on: SNB-19 CNS
# NCI-H23 lung = tested on: NCI-H23 lung
# SK-MEL-5 melanoma = tested on: SK-MEL-5 melanoma
# HS 578T breast = tested on: HS 578T breast
# NCI/ADR-RES ovarian = tested on: NCI/ADR-RES ovarian
# SW-620 colon = tested on: SW-620 colon
# CCRF-CEM leukemia = tested on: CCRF-CEM leukemia
# CAKI-1 renal = tested on: CAKI-1 renal
# UO-31 renal = tested on: UO-31 renal
# UACC-62 melanoma = tested on: UACC-62 melanoma
# SK-OV-3 ovarian = tested on: SK-OV-3 ovarian
# NCI-H522 lung = tested on: NCI-H522 lung
# OVCAR-4 ovarian = tested on: OVCAR-4 ovarian
# XF 498 CNS = tested on: XF 498 CNS
# KM12 colon = tested on: KM12 colon
# SF-539 CNS = tested on: SF-539 CNS
# NCI-H460 lung = tested on: NCI-H460 lung
# DMS 273 small cell lung = tested on: DMS 273 small cell lung
# SK-MEL-28 melanoma = tested on: SK-MEL-28 melanoma
# OVCAR-3 ovarian = tested on: OVCAR-3 ovarian
# RXF 393 renal = tested on: RXF 393 renal
# MALME-3M melanoma = tested on: MALME-3M melanoma
# SR leukemia = tested on: SR leukemia
# RPMI-8226 leukemia = tested on: RPMI-8226 leukemia
# MOLT-4 leukemia = tested on: MOLT-4 leukemia
# UACC-257 melanoma = tested on: UACC-257 melanoma
# T-47D breast = tested on: T-47D breast
# K-562 leukemia = tested on: K-562 leukemia
compound,measurement,setting,value
NC[C@@](O)(c1ccc(Cl)cc1)c1ccc(-c2cn[nH]c2)cc1,TGI,SNB-19 CNS,"> 100 µM [sample A, 1 test] and 6.41 µM [sample B, 1 test]"
same,GI50,NCI-H23 lung,"> 100 µM [sample A, 1 test] and 5.46 µM [sample B, 1 test]"
same,GI50,SK-MEL-5 melanoma,"> 100 µM [sample A, 1 test] and 3.63 µM [sample B, 1 test]"
same,TGI,HS 578T breast,"> 100 µM [sample A, 1 test] and 1.47 µM [sample B, 1 test]"
same,TGI,NCI/ADR-RES ovarian,"> 100 µM [sample A, mean of 2 tests] and 5.81 µM [sample B, 1 test]"
same,TGI,SW-620 colon,"> 100 µM [sample A, 1 test] and 4.88 µM [sample B, 1 test]"
same,TGI,CCRF-CEM leukemia,"> 100 µM [sample A, 1 test] and 3.79 µM [sample B, 1 test]"
same,TGI,CAKI-1 renal,"> 100 µM [sample A, 1 test] and 2.86 µM [sample B, 1 test]"
same,TGI,UO-31 renal,"> 27.7 µM [sample A, mean of 2 tests] and 2.38 µM [sample B, 1 test]"
CC(=O)OCC1OC(n2c(-c3ccccc3)c(C)c(C)c(C#N)c2=S)C(OC(C)=O)C(OC(C)=O)C1OC(C)=O (stereo not given),GI50,UACC-62 melanoma,"> 50 µM [sample A, 1 test] and 942 nM [sample B, 1 test]"
COc1cc([C@@H]2c3cc4c(c(O)c3C[C@H]3COC(=O)[C@@H]32)OCO4)cc(OC)c1O,GI50,SK-OV-3 ovarian,2.94 nM and > 200 µM
same,TGI,SK-OV-3 ovarian,9.02 nM and > 200 µM
same,GI50,NCI-H522 lung,0.126 nM [1 test] and 235 nM [mean of 3 tests]
same,TGI,NCI-H522 lung,0.713 nM [1 test] and 299 nM [mean of 3 tests]
same,GI50,OVCAR-4 ovarian,5.89 nM [1 test] and 659 nM [mean of 2 tests]
same,GI50,XF 498 CNS,6.53 nM [1 test] and 439 nM [mean of 3 tests]
same,GI50,KM12 colon,3.94 nM [1 test] and 45.5 nM [mean of 3 tests]
same,GI50,SF-539 CNS,1.57 nM [1 test] and 46.8 nM [mean of 3 tests]
same,TGI,SF-539 CNS,4.1 nM [1 test] and 61 nM [mean of 3 tests]
same,GI50,NCI-H460 lung,3.06 nM [1 test] and 768 nM [mean of 2 tests]
same,TGI,NCI-H460 lung,8.15 nM [1 test] and > 105 µM [mean of 2 tests]
same,TGI,DMS 273 small cell lung,5.64 nM and > 200 µM
same,GI50,SK-MEL-28 melanoma,4.73 nM [1 test] and 148 nM [mean of 3 tests]
same,GI50,OVCAR-3 ovarian,2.07 nM [1 test] and > 63.2 µM [mean of 2 tests]
same,TGI,OVCAR-3 ovarian,4.67 nM [1 test] and > 63.2 µM [mean of 2 tests]
same,TGI,RXF 393 renal,6.38 nM and 4.33 µM
same,TGI,MALME-3M melanoma,5.16 nM and > 32.1 µM
S=C(N/N=C(/c1ccccc1)c1ccccn1)Nc1cccc(Cl)c1,TGI,SR leukemia,1.67 µM and > 100 µM
same,TGI,RPMI-8226 leukemia,107 nM and > 100 µM
same,TGI,HS 578T breast,63.1 nM and 21.1 µM
same,TGI,MOLT-4 leukemia,71.7 nM and > 100 µM
same,TGI,UACC-257 melanoma,27.2 nM and 3.86 µM
same,TGI,T-47D breast,675 nM and 14.3 µM
same,GI50,K-562 leukemia,< 1 nM and 38.8 nM
same,TGI,K-562 leukemia,23.4 nM and 14.1 µM
